Results on 44 compounds are retold here after paper PMC4336329 (PLoS ONE, 2015).

Each structure is given as a SMILES string. Among all 310,000 compounds or so, about 2,200 (0.71%) showed an effect of 50% or more. Effects have a minus sign here. The list shows a part of the results.

The experiment deals with human ether-à-go-go-related gene (hERG) potassium channel (human, UniProt Q12809). The experiment can be described thus: primary screen, population patch clamp on CHO cells stably expressing hERG.
Sequence of human ether-à-go-go-related gene (hERG) potassium channel (Q12809 whole entry, looked up): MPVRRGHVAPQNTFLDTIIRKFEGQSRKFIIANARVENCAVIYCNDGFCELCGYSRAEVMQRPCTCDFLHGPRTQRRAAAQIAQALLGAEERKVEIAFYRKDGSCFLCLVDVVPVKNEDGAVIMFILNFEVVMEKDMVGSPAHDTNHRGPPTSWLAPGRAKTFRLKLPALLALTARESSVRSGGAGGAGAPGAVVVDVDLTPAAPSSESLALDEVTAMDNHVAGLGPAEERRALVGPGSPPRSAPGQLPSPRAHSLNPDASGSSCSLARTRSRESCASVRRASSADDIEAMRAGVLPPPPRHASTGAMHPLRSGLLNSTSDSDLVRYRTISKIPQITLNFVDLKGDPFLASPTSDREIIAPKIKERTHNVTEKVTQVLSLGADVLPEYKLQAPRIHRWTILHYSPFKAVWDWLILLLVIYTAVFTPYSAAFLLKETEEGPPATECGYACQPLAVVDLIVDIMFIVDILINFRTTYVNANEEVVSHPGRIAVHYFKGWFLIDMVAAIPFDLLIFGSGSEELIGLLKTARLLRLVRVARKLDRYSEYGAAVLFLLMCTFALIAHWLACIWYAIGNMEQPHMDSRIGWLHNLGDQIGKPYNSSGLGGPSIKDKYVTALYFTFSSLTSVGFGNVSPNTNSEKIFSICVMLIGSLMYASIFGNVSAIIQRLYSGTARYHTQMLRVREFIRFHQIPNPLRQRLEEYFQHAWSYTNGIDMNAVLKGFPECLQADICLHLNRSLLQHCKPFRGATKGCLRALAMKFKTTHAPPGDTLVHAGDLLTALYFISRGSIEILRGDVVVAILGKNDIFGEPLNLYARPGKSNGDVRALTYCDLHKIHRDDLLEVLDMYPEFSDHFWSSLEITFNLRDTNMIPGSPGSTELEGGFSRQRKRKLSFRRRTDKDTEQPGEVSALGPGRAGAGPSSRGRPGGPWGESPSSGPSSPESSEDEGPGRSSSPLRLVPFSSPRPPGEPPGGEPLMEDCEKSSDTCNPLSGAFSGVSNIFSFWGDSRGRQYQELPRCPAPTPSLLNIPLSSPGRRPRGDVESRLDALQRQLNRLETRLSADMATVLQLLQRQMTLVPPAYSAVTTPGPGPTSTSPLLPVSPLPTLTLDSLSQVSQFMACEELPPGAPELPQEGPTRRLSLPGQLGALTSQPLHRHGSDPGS
Turning to `O=S(=O)(c1ccc(N2CCN(c3ccc(F)cc3)CC2)cc1)N1CCCC1`, the “hERG current change (%, negative = inhibition) at 1uM” value is on record as 6.27%.

Take `CC(C)c1cc(=O)n2[nH]c(SCc3ccc(Cl)cc3)nc2n1`: the “hERG current change (%, negative = inhibition) at 1uM” value came out at 27.8%.

As to `COc1cc(O)oc1C=Nc1ccc(Cl)cc1`, the “hERG current change (%, negative = inhibition) at 1uM” value was determined as 10.9%.

In the case of `O=S(=O)(NCCN1CCOCC1)c1ccc(Oc2ccccc2Cl)cc1`, the “hERG current change (%, negative = inhibition) at 1uM” value turned out to be 5.88%.

Regarding `CCCCCn1c(CN2CCN(Cc3ccccc3)CC2)nc2c1c(=O)[nH]c(=O)n2C`, the “hERG current change (%, negative = inhibition) at 1uM” value is listed as -72.5%.

As for `COc1ccc(NC(=O)CSc2nnc(-c3ccccc3)n2N)cc1`, the “hERG current change (%, negative = inhibition) at 1uM” value is 7.49%.

For the compound `CCOc1ccccc1NC(=O)C(OC(=O)c1cnccn1)c1ccccc1` (centres unmarked), the “hERG current change (%, negative = inhibition) at 1uM” value was 13.9%.

With `COC(=O)c1c(NC(=O)/C=C/C(=O)O)sc(C)c1-c1ccc(C)cc1`, the “hERG current change (%, negative = inhibition) at 1uM” value is -0.598%.

Turning to `O=C(O)/C(=N/NC(=O)c1ccc(Cl)cc1)c1ccccc1`, the “hERG current change (%, negative = inhibition) at 1uM” value came out at 7.71%.

In the case of `Cc1nc2ccccc2c(=O)n1-c1ccc(NS(=O)(=O)c2ccc(F)cc2)cc1`, the “hERG current change (%, negative = inhibition) at 1uM” value is on record as -6.05%.

`O=C(NCc1ccco1)c1nn2c(C(F)(F)F)cc(-c3cccs3)nc2c1Br`: the “hERG current change (%, negative = inhibition) at 1uM” value turned out to be 2.62%.

With `O=C(Cn1ncn2c(cc3sccc32)c1=O)NC1CCCC1`, the “hERG current change (%, negative = inhibition) at 1uM” value was 10.7%.

As to `COc1ccc(Cn2c(=S)[nH]c3cc(OC)c(OC)cc3c2=O)cc1`, the “hERG current change (%, negative = inhibition) at 1uM” value is listed as 7.98%.

`COc1cccc(NC(=O)N2CCCC2C(=O)Nc2ccc3c(c2)OCCO3)c1` (centres unmarked): the “hERG current change (%, negative = inhibition) at 1uM” value is on record as 10.2%.

As to `O=[N+]([O-])c1cc(C2Nc3cccc4cccc(c34)N2)ccc1Cl`, the “hERG current change (%, negative = inhibition) at 1uM” value worked out at 12.7%.

As for `CN1CCCN(C(=O)Cc2c(Cl)cccc2Cl)c2nc3ccccc3nc21`, the “hERG current change (%, negative = inhibition) at 1uM” value came out at 14.8%.

Turning to `COc1ccc(C(=O)NCc2n[nH]c(=S)n2-c2ccccc2)cc1OC`, the “hERG current change (%, negative = inhibition) at 1uM” value came to 21.3%.

In the case of `Cc1csc(NC(=O)CS(=O)(=O)c2ccccc2)n1`, the “hERG current change (%, negative = inhibition) at 1uM” value stood at 1.28%.

Take `CCn1c(COc2ccccc2)nnc1SCC(=O)Nc1cc(C)ccc1OC`: the “hERG current change (%, negative = inhibition) at 1uM” value was -8.46%.

With `O=C(NNC(=O)c1ccccc1Br)c1cccs1`, the “hERG current change (%, negative = inhibition) at 1uM” value came out at 12%.

As to `CN(Cc1ccccc1)S(=O)(=O)c1nnc(NC(=O)c2ccc(F)cc2)s1`, the “hERG current change (%, negative = inhibition) at 1uM” value came out at 1.32%.

Take `CSc1ccccc1OCc1cc(C(=O)NCCn2nc(C)cc2C)no1`: the “hERG current change (%, negative = inhibition) at 1uM” value stood at 8.49%.

On to `CC1CCc2c(sc(NC(=O)Cn3cnc([N+](=O)[O-])n3)c2C(N)=O)C1` (centres unmarked), for which the “hERG current change (%, negative = inhibition) at 1uM” value came out at 10.2%.

Take `C/C(=N\NC(=O)CN1CCN(S(=O)(=O)c2ccc(C)cc2)CC1)c1ccc(O)cc1`: the “hERG current change (%, negative = inhibition) at 1uM” value was 9.16%.

Turning to `O=C(Nc1ccc(N2CCOCC2)cc1)c1cccc2ccccc12`, the “hERG current change (%, negative = inhibition) at 1uM” value is reported as 14.9%.

For `O=C1CCC(C(=O)OCc2nnc(-c3ccccc3)o2)=NN1`, the “hERG current change (%, negative = inhibition) at 1uM” value is 15.1%.

As to `Cc1ccc(C)n1-c1ccc(-c2nnc3n2CCCCC3)s1`, the “hERG current change (%, negative = inhibition) at 1uM” value was 7.47%.

For the compound `Cc1ccc(NC(=O)/C(C#N)=C/c2cc(C)n(-c3ccc(N4CCOCC4)c([N+](=O)[O-])c3)c2C)c(C)c1`, the “hERG current change (%, negative = inhibition) at 1uM” value is given as -11.2%.

With `COC(=O)C1=Cc2cc(OC)cc([N+](=O)[O-])c2OC1N1CCOCC1` (centres unmarked), the “hERG current change (%, negative = inhibition) at 1uM” value was -0.802%.

For `O=c1oc(-c2ccccc2F)nc2c1cnn2-c1ccccc1`, the “hERG current change (%, negative = inhibition) at 1uM” value is on record as 6.5%.

Take `CC1=NN(c2ccccc2)C(=O)/C1=C\c1cn(-c2ccccc2)nc1C`: the “hERG current change (%, negative = inhibition) at 1uM” value is on record as 9.11%.

With `COCCCn1c(=N)c(C(N)=S)cc2c(=O)n3cccc(C)c3nc21`, the “hERG current change (%, negative = inhibition) at 1uM” value is reported as -70.3%.

In the case of `CCOC(=O)c1nn(-c2cccc(C)c2)c2nnc(Cc3ccc(C)cc3)c(=O)n12`, the “hERG current change (%, negative = inhibition) at 1uM” value is listed as 9.22%.

Take `Cc1ccc(NCC(=O)Nc2cccc(S(=O)(=O)N(C)C)c2)c(Cl)c1`: the “hERG current change (%, negative = inhibition) at 1uM” value is 6.21%.

With `O=C(Nc1cccnc1)c1cc(-c2ccc3c(c2)OCO3)on1`, the “hERG current change (%, negative = inhibition) at 1uM” value is -1.48%.

With `Cc1ccc(N2C(=O)N(CC(=O)Nc3ccc(C)cc3Cl)C(=O)C2C)cc1` (centres unmarked), the “hERG current change (%, negative = inhibition) at 1uM” value is 5.48%.

Take `CC(=O)c1ccc(OCCCC(=O)NC(C)c2ccc(S(N)(=O)=O)cc2)cc1` (centres unmarked): the “hERG current change (%, negative = inhibition) at 1uM” value turned out to be 12.7%.

Regarding `OCCOCCn1c(C2CCCN2c2nc(-c3ccc(F)cc3)cs2)nc2cc(C(F)(F)F)ccc21` (centres unmarked), the “hERG current change (%, negative = inhibition) at 1uM” value is given as -73.2%.

Take `CCc1ccc2oc(=O)cc(CN3CCOCC3)c2c1`: the “hERG current change (%, negative = inhibition) at 1uM” value was -3.89%.

As to `COc1ccccc1OCCNC(=O)c1cccc(S(=O)(=O)N2CCN(Cc3ccccc3)CC2)c1`, the “hERG current change (%, negative = inhibition) at 1uM” value is -6.1%.

On to `COc1ccc(-c2nn(-c3ccccc3)cc2N)cc1`, for which the “hERG current change (%, negative = inhibition) at 1uM” value amounted to 3.81%.

For the compound `Cc1noc(C)c1CSCC(=O)N(C)CC(=O)Nc1ccc(Cl)c(Cl)c1`, the “hERG current change (%, negative = inhibition) at 1uM” value amounted to 12.9%.

On to `C=CCNC(=S)N/N=C/c1ccc(C)s1`, for which the “hERG current change (%, negative = inhibition) at 1uM” value turned out to be 9.18%.

Regarding `O=C(NCCCNC(=O)c1cc(Cl)ccc1Cl)c1ccccn1`, the “hERG current change (%, negative = inhibition) at 1uM” value is recorded as -0.609%.
